# From PubChem BioAssay AID360 (National Center for Advancing Translational Sciences (NCATS), 2006)
# About 550 (1.1%) of roughly 48,000 compounds were called active. Another 4% or so got no clear call; they are omitted. No stated cut-off is given here; in the data, active means potency below about 15 µM; inconclusive means mostly about 16 µM to 33 µM; inactive means weaker than that. The list shows a part of the results.
# Target: Lysosomal acid glucosylceramidase (Homo sapiens) (UniProt P04062)
# UniProt P04062, sequence (P04062 whole entry, looked up): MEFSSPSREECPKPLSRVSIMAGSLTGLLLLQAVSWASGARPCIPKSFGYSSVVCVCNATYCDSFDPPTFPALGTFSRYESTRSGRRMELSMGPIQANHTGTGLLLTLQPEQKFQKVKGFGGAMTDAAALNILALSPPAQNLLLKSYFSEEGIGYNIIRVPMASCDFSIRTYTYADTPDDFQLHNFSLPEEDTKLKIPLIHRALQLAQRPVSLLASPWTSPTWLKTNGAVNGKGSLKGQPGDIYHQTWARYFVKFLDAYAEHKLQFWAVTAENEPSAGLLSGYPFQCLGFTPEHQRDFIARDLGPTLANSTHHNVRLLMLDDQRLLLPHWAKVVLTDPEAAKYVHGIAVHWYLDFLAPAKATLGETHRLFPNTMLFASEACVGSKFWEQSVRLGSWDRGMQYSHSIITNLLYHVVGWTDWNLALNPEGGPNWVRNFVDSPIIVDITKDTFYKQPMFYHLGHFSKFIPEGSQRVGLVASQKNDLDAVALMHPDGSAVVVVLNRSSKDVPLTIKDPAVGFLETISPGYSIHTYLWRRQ
# Test: Glucocerebrosidase;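 further: the screen sought inhibitors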
# Details: purified enzyme, resorufin glucoside fluorescence (screen aimed at inhibitors), 20 min; series mostly up to 77 µM
# How it was run: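 Wild-type enzyme at 0.2 nM final in 50mM citric acid/KH2PO4, 10mM sodium taurocholate, 0.01% tween-20, pH 5.9, with resorufin beta-D-glucopyranoside at 30 uM final. Compounds titrated, 20 min at RT, red fluorescence read; AC50 from titration.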
# Potency means the concentration at half of the fitted maximal effect.
row,Compound,Potency
1,COCCOCC(O)CN1CCN(c2ccc(C)cc2)CC1 (centres undefined),inactive: > 76.9 µM
2,Cc1cc2nc(C3CCN(CC4COc5ccccc5O4)CC3)[nH]c2cc1C (centres undefined),inactive: > 76.9 µM
3,Cc1cc(C)nc(-n2nc(C)cc2NC(=O)c2cc3ccccc3oc2=O)n1,inactive: > 76.9 µM
4,Cc1c(C(C)NC(=O)Nc2ccc(F)cc2F)cnn1C (centres undefined),inactive: > 76.9 µM
5,CCCc1ccccc1OCCNC(C)=O,inactive: > 76.9 µM
6,O=C(NCCc1c[nH]c2ccccc12)C(F)(F)C(F)F,inactive: > 76.9 µM
7,CC(NC(=O)c1cccc(F)c1)C(c1cccs1)N1CCN(C)CC1 (centres undefined),inactive: > 76.9 µM
8,COc1cccc2c(C)c(C(=O)O)[nH]c12,inactive: > 76.9 µM
9,COCc1[nH]nc2c1C1(C(=O)Nc3ccc(F)cc31)C(C#N)=C(N)O2 (centres undefined),inactive: > 76.9 µM
10,CCCCn1c(SCC(=O)N(CC)C2CCS(=O)(=O)C2)nnc1C(CC)N(C)C (centres undefined),inactive: > 76.9 µM
11,COc1cc(-c2nc(S(=O)(=O)c3ccc(Cl)cc3)c(N3CCOCC3)o2)cc(OC)c1OC,inactive: > 76.9 µM
12,Cc1ccc(OCc2nc(C#N)c(NCc3ccc4c(c3)OCO4)o2)cc1,inactive: > 76.9 µM
13,CCC(c1nnnn1Cc1ccco1)N1CCC(C(N)=O)CC1 (centres undefined),inactive: > 76.9 µM
14,CCNc1nc(SC(C)C(=O)Nc2ccccc2)nc(N2CCOCC2)n1 (centres undefined),inactive: > 76.9 µM
15,CCn1c(SCC(=O)Nc2ccc(NC(=O)c3ccco3)c(OC)c2)nc2ccccc2c1=O,inactive: > 76.9 µM
16,COc1cc2c(C)nc3onc(-c4ccccc4)c3c2cc1OC,inactive: > 76.9 µM
17,COCCN(CCOC)C(=O)c1cc2sc3ccccc3c2s1,inactive: > 76.9 µM
18,COn1c(SCC(=O)N(C)C)nc2ccccc2c1=O,inactive: > 76.9 µM
19,CCC1(C)Cc2c(sc3nc(NC)n(C)c(=O)c23)CO1 (centres undefined),inactive: > 76.9 µM
20,Cc1c(NC(=O)CN2CCCc3ccccc32)c(=O)n(-c2ccccc2)n1C,inactive: > 76.9 µM

row,Compound,Potency
1,COc1ccc2nc(N3CCCC3)c(C#N)cc2c1,inactive: > 76.9 µM
2,Cc1ccc2c(COC(=O)c3n[nH]c4ccccc34)cc(=O)oc2c1,inactive: > 76.9 µM
3,Cc1nn(CCc2nn[nH]n2)c2nc(C(F)(F)F)cc(C(F)(F)F)c12,inactive: > 76.9 µM
4,CSc1ccc(-c2nnn(CC(=O)NCc3ccccc3)n2)cc1,inactive: > 76.9 µM
5,COc1cc2cc(CN(CCN3CCCC3)C(=O)Nc3ccc(F)cc3)c(=O)[nH]c2cc1OC,inactive: > 76.9 µM
6,O=C(NCCN1CCOCC1)c1cccs1,inactive: > 76.9 µM
7,CC(=O)c1cnc2nc(C)nn2c1C,inactive: > 76.9 µM
8,CC#CCCC(=O)N1C=Cc2ccccc2C1C#N (centres undefined),inactive: > 76.9 µM
9,COc1cccc(-c2nn(C)c3sc(C(=O)N4CCN(c5ccccc5)CC4)cc23)c1,inactive: > 76.9 µM
10,COc1cccc(CNC(=O)C2CCN(C(=O)N(C)C)CC2)c1,inactive: > 76.9 µM
11,CCOC(=O)Cc1csc(NC(=O)CSc2nnc(-n3nc(C)cc3C)c3ccccc23)n1,inactive: > 76.9 µM
12,Nc1cc(N)nc(SCc2cc(=O)oc3cc4c(cc23)CCC4)n1,inactive: > 76.9 µM
13,COC(=O)c1ccccc1NC(=O)Cn1c(SC)c(F)cnc1=O,inactive: > 76.9 µM
14,CC(=O)c1ccc(-n2nnnc2SCC(=O)N2CCN(C(=O)c3ccco3)CC2)cc1,inactive: > 76.9 µM
15,COc1cc(OC)cc(C(=O)N(Cc2nc(-c3cccc(C)c3)no2)C(C)C)c1,inactive: > 76.9 µM
16,COc1cc(CC(=O)Nc2nccs2)cc(OC)c1OC,inactive: > 76.9 µM
17,CCOc1cc(N2CCOCC2)c(OCC)cc1NC(=O)C(NC(=O)c1ccco1)C(C)C (centres undefined),inactive: > 76.9 µM
18,Cc1ccc(C(O)c2nccn2C)o1 (centres undefined),inactive: > 76.9 µM
19,CCc1ccc(C2=Nn3c(nnc3-c3cccs3)SC2)cc1,active: 8.15 µM
20,CC(=O)Nc1ccccc1OCc1nnc(-c2cccs2)o1,inactive: > 76.9 µM

row,Compound,Potency
1,CCC(C)COC(=O)C(C#N)c1nc2ccccc2nc1N1CCCCC1 (centres undefined),inactive: > 76.9 µM
2,S=C(c1ccc(N2CCOCC2)cc1)N1CCOCC1,inactive: > 76.9 µM
3,O=C(CN1CCN(C(=O)c2ccccc2)CC1)Nc1ccc(Br)cn1,inactive: > 76.9 µM
4,CC(C)C(c1nnnn1CC1CCCO1)N1CCN(C2CCCC2)CC1 (centres undefined),inactive: > 76.9 µM
5,Cc1ccc(C2CC(c3cccc(Br)c3)Nc3nnnn32)cc1 (centres undefined),inactive: > 76.9 µM
6,O=C(O)c1cc(S(=O)(=O)Nc2ccc3oc(=O)sc3c2)ccc1O,inactive: > 76.9 µM
7,Cc1[nH]c(=O)[nH]c(=O)c1S(=O)(=O)N1CCCC(C(=O)NCc2ccco2)C1 (centres undefined),inactive: > 76.9 µM
8,O=S(=O)(Nc1ccc(Cc2ccncc2)cc1)N1CCCC1,inactive: > 76.9 µM
9,O=C(NCc1ccco1)c1c2c(nc3ccccc13)CCC2,inactive: > 76.9 µM
10,O=C(CN(CC1CCCO1)C(=O)CCC(=O)Nc1ccccn1)NCC1CCCO1 (centres undefined),inactive: > 76.9 µM
11,CNC(=O)NC(=O)CSc1ncc(C(F)(F)F)cc1Cl,inactive: > 76.9 µM
12,COc1cccc(C2CC(=O)Nc3cc(OC)c(OC)c(OC)c32)c1OC (centres undefined),inactive: > 76.9 µM
13,CC(O)CNc1ncnc2nc[nH]c12 (centres undefined),inactive: > 76.9 µM
14,COCCCNC(=O)c1c(-c2ccccc2)noc1C,inactive: > 76.9 µM
15,O=c1c2[nH]c3ccc(F)cc3c2ncn1CCCN1CCOCC1,inactive: > 76.9 µM
16,COCCn1nnnc1C(c1cccs1)N1CCN(c2ccccc2)CC1 (centres undefined),inactive: > 76.9 µM
17,C#CCn1cc[n+](CC(=O)N(C)C)c1,inactive: > 76.9 µM
18,CC(=O)Nc1ccc(S(=O)(=O)NCc2ccc(C(=O)NCc3ccc4c(c3)OCO4)cc2)cc1,inactive
19,CCOC(=O)C1CCN(C(C(=O)Nc2ccc3c(c2)OCCO3)c2ccccc2)CC1 (centres undefined),inactive: > 76.9 µM
